Laboratory results from publication PMC6919601, “Identification of Plasmodium dipeptidyl aminopeptidase allosteric inhibitors by high throughput screening” (PLoS ONE, 2019).
Among all 110,000 compounds or so, about 230 (0.21%) showed an effect of 50% or more. The list shows a part of the results.

Each compound was assayed against DPAP1 (Plasmodium falciparum, UniProt Q8IIJ9) (assay: primary screen, percent inhibition; read by cleavage of a fluorogenic dipeptide substrate; higher = more effect of the substance).
Parameters: species or system P. falciparum D10 trophozoite lysates; single well
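Further: 30 min substrate incubation versus DMSO and 10 µM JCP410 controls.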

Chain of DPAP1 (Q8IIJ9 whole entry, looked up): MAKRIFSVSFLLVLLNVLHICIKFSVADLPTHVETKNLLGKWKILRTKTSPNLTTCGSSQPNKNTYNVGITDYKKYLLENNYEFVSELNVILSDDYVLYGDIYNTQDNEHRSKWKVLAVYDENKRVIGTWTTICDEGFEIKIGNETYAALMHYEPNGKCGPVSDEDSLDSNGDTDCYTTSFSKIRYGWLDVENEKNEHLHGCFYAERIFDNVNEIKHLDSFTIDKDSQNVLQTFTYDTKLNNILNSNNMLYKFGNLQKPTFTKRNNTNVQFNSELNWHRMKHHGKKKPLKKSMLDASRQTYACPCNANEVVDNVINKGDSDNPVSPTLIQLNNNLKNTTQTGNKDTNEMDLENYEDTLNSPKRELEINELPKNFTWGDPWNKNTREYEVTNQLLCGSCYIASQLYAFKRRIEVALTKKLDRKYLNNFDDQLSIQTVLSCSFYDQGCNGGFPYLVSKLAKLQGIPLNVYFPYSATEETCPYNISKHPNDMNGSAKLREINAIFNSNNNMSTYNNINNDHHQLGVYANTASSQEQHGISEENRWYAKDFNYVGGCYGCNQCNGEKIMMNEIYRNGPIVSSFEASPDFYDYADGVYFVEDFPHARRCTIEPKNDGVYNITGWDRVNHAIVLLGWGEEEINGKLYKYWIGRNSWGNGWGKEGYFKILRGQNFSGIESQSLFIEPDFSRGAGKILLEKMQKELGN

Row | SMILES | % Inhibition @ 10 uM [%]
1 | CCC(C)Oc1ccc(/C=C2/SC(=O)N(CC)C2=O)cc1OC (centres unmarked) | -1.88
2 | O=C1CC(N2CCN(c3ccccn3)CC2)C(=O)N1c1ccccc1 (centres unmarked) | -5.14
3 | CCN(/C=N/c1sc2c(c1C#N)CCCC2)CC | -6.22
4 | CCOc1ccc(/C=C2/C=C(c3ccc(F)cc3)OC2=O)cc1 | 1.84
5 | COc1cc(/C=C2\NC(=S)NC2=O)cc(OC)c1 | 3.42
6 | COc1ccc(C(=O)NCCC2(c3ccc(C)cc3)CCOC(C)(C)C2)cc1 (centres unmarked) | 1.83
7 | C=CCSc1nc(O)c(Cc2ccccc2)c(O)n1 | -5.26
8 | O=C(CSc1nc(-c2ccc(F)cc2)[nH]c1-c1ccccc1)Nc1nccs1 | -3.39
9 | Cc1ccc(Nc2nc(-c3ccc(F)cc3)cs2)cc1 | 3.92
10 | CCOc1cccc(-c2nc(S)c3c(n2)Oc2c(O)cccc2C3)c1 | 4.23
11 | O=C(NC(=O)c1ccc(Cl)cc1Cl)OC[C@@H]1CCCN2CCCCC12 (some centres unmarked) | 4.19
12 | O=C1OC(c2ccc(Cl)c(Cl)c2)=N/C1=C\c1ccc2c(c1)OCO2 | -3.33
13 | CC12c3ccccc3C(c3ccccc31)C1C(=O)N(c3ccc4c(c3)OCO4)C(=O)C12 (centres unmarked) | 10.1
14 | CCCCNC(=O)CN1N=C(c2ccc(Cl)cc2)CCC1=O | 2.18
15 | Cc1ccc(OCC(O)CN2CCN(CCN3C(=O)c4cccc5cccc(c45)C3=O)CC2)c(C)c1 (centres unmarked) | -5.23
16 | O=C(C1CCCN1S(=O)(=O)c1cccc2cccnc12)N1CC=C(c2ccccc2)CC1 (centres unmarked) | 0.981
17 | CSCCC(NS(=O)(=O)c1cccs1)C(=O)NCc1ccccc1Cl (centres unmarked) | 1.76
18 | O=C(O)CCCC(=O)Nc1cccc2cccnc12 | -6.71
19 | COc1ccc(CNCc2c(C(=O)O)c(C)n(Cc3ccc(C)cc3)c2C)cc1 | -1.92
20 | CC(C)CCn1c(Sc2nc3ccccc3[nH]2)nc2c1c(=O)[nH]c(=O)n2C | 6.29
21 | OC1CCN(Cc2cccs2)CC1 | 1.63
22 | CCOc1ccccc1C1C=C(c2cccs2)Nc2ncnn21 (centres unmarked) | 3.32
23 | O=C(O)c1cccc(-n2nnnc2SCc2ccccn2)c1 | -0.0735
24 | OC1(c2ccc(Cl)cc2)CCN(Cc2cccc(F)c2)CC1 | 0.273
25 | CN(CN1C(=O)C(=O)c2ccccc21)c1ccccc1 | 5.31
26 | CCCOc1ccccc1C1CC(=O)Nc2c1ccc1ccccc21 (centres unmarked) | -0.297

Row | SMILES | % Inhibition @ 10 uM [%]
27 | O=C(CN1C(=O)c2ccccc2C1=O)Nc1ccc(Br)cc1C(=O)O | -4.21
28 | Cc1cc(N2CCOCC2)ccc1/C=C1/SC(=O)N(C)C1=O | 1.59
29 | CCCOc1ccc(CNC(=O)C(C)n2sc3ccccc3c2=O)cc1 (centres unmarked) | -2.13
30 | Cc1ccc(N(CC(=O)NCc2ccco2)S(=O)(=O)c2ccc(C)cc2)cc1 | 1.61
31 | O=C(NCc1cccnc1)C1CC(c2ccccc2F)=NO1 (centres unmarked) | -5.79
32 | CCOC(=O)N1CCC(NC(=O)C2CCCN(S(C)(=O)=O)C2)CC1 (centres unmarked) | 2.18
33 | COc1cc(OC)c(CN2CCc3ccccc3C2)cc1Br | -1.92
34 | COc1ccccc1CNc1nc(-c2ccc(C)cc2)nc2ccccc12 | 2.06
35 | Nc1onc(-c2ccccc2)c1-c1ccccc1 | 4.32
36 | CCOc1ccc2nc(N3CCC(C(=O)N4CCCC4)CC3)sc2c1 | 4.95
37 | CCCc1[nH]nc2c1C(c1cccs1)C(C#N)=C(N)O2 (centres unmarked) | 2.36
38 | Cn1cc(NC(=O)NCCN(Cc2ccco2)C2CCCC2)c2ccccc2c1=O | 1.81
39 | O=C(Cn1c(=O)c2cccn2c2cccnc21)NCCCN1CCOCC1 | -8.52
40 | Cn1c2ccccc2c2nnc(SCC(=O)Nc3nc4ccccc4s3)nc21 | 0.611
41 | CCCSc1nc(O)cc(=O)n1-c1ccccc1 | -3.8
42 | O=C(CN(c1ccc(F)cc1)S(=O)(=O)c1ccccc1)Nc1ccc2ccccc2c1 | 1.35
43 | COc1cc(OC)c(OC)cc1/C=C1\N=C(c2cc(Br)ccc2OC)OC1=O | 3.74
44 | CSc1nn(Cc2ccccc2)c(N)c1S(=O)(=O)c1ccccc1 | -3.85
45 | COC(=O)c1cc2nc(-c3cccs3)cc(C(F)(F)F)n2n1 | -4.15
46 | COc1ccc(/C=C/c2cc(C(N)=O)c3ccccc3n2)cc1 | -2.36
47 | CCOC(=O)c1sc2ccccc2c1S(=O)(=O)N1CCCCC1 | -5.52
48 | O=C(NCCC1=CCCCC1)/C(=C/c1ccco1)NC(=O)c1ccccc1 | -4.65
49 | CC1(c2ccccc2)CC(C)(C)N(C(=O)CN2CCOCC2)c2ccccc21 (centres unmarked) | -2.97
50 | Cc1c(C)c2cc(Cl)c3c(c2oc1=O)CN(Cc1ccc2c(c1)OCO2)CO3 | 2.54
51 | COc1ccccc1C/N=C/c1c(O)[nH]c2ccccc12 | 6.28
52 | Cc1ccccc1-c1nc(CS(=O)CC(=O)NCc2ccccn2)c(C)o1 (centres unmarked) | 0.689

Row | SMILES | % Inhibition @ 10 uM [%]
53 | CCN(CCN(C)C)Cc1c(F)cccc1F | -3.5
54 | CC(C)(C)NC(=O)Cn1c(-c2nonc2N)nc2ccccc21 | -0.305
55 | CCN1CCN(C(c2cccs2)C(C)NC(=O)c2c(F)cccc2F)CC1 (centres unmarked) | -1.08
56 | Cc1ccc(Cc2nc(O)c3nnn(Cn4nnc(-c5ccc(Cl)cc5)n4)c3n2)cc1 | 3.51
57 | O=C(CN1CCN(c2ccccc2F)CC1)Nc1nc(-c2ccccc2)cs1 | -2.98
58 | O=c1c(Nc2ccccc2)nsnc1Nc1ccccc1 | -1.63
59 | O=C1Nc2ccc(Br)c3cccc1c23 | 11.3
60 | COc1ccc(C)cc1N(CC(=O)Nc1ccc(C)cc1C)S(C)(=O)=O | -1.71
61 | O=C(CC(C(=O)O)c1ccccc1)Nc1ccccc1Cl (centres unmarked) | 2.48
62 | CC1=C(c2ccc(C(C)C)cc2)S(=O)(=O)N=C1NC1CCCc2ccccc21 (centres unmarked) | 2.27
63 | CCC(C)NC(=O)CSCc1nc(-c2cccc(C)c2)oc1C (centres unmarked) | -4.71
64 | Fc1ccccc1CN1CCN(c2ccccc2)CC1 | -2.81
65 | CCOc1ccccc1C(=O)Nc1cccc2cccnc12 | 7.09
66 | O=C(Cn1c(C(F)(F)F)nc2ccccc21)c1ccccc1 | -2.32
67 | CC(=O)CCN(Cc1ccccc1)Cc1ccccc1 | -6.06
68 | N#Cc1c(N/C=C/C(=O)c2ccco2)sc2c1CCCC2 | 2.38
69 | Cc1cccc2sc(NC(=O)c3ccco3)nc12 | -2.19
70 | CN1CCC(NCCc2ccc(Cl)cc2Cl)CC1 | -2.95
71 | Cc1ccc(C(=O)n2nc(-c3ccc(Cl)cc3)nc2NCc2ccco2)cc1 | -2.91
72 | Cc1cc(C)c2c(n1)SCC(=O)N2CCCC(=O)NC1CCCCCC1 | -6.01
73 | Fc1ccccc1/C=C/c1nc(-c2cccs2)no1 | 2.57
74 | CCOc1ccc(C2CC(=O)N=C(NC(=O)c3ccc(OC(F)F)cc3)N2)cc1 (centres unmarked) | 1.13
75 | O=C1NC(=O)/C(=C/c2cccc(Oc3ccccc3)c2)S1 | -2.58
76 | C1CCCC(N2CCOCC2)CCC1 | 3.19
77 | CC(=O)NS(=O)(=O)c1ccc(NC(=O)c2cccc3ccccc23)cc1 | -3.26
78 | Cc1ccc(NC(=O)c2ccc(C(F)(F)F)cc2)cc1O | 2.5

Row | SMILES | % Inhibition @ 10 uM [%]
79 | Cc1[nH]c2ccccc2c1CN1CCN(c2ccccn2)CC1 | 15
80 | Clc1nc(N2CCOCC2)nc(N2CCSCC2)n1 | -1.85
81 | COc1ccccc1CNC(=O)c1cccc(C(=O)NCc2ccccc2OC)c1 | -14.6
82 | CC(=O)c1nn(-c2ccc(Br)cc2)cc1C(=O)c1ccccc1 | 3.21
83 | Cc1sc(NC(=O)C2C3C=CC(C3)C2C(=O)O)c(C(N)=O)c1-c1ccc(C(C)C)cc1 (centres unmarked) | 1.39
84 | COc1ccc(N(CN2C(=O)c3ccccc3C2=O)C(=O)C(F)(F)F)cc1 | -2.8
85 | CN(Cc1ccc(Cl)cc1)S(=O)(=O)c1nnc(NC(=O)C(C)(C)C)s1 | -1.59
86 | CCOc1ccc(CCNC(=O)CCc2nnc3ccc(N4CCOCC4)nn23)cc1OCC | -5.37
87 | CC(=O)c1sc(NCCOc2ccc(C)cc2)nc1C | -3.96
88 | CC1CCCC(N2CCN(c3cccc(Cl)c3)CC2)C1 (centres unmarked) | -3.6
89 | CC(=O)C1=C(N)OC(C)=C(C#N)C1c1ccc[n+](C)c1 (centres unmarked) | -1.38
90 | COc1ccc(-c2cc(C)no2)cc1S(=O)(=O)NCC(C)c1ccccc1 (centres unmarked) | -11.6
91 | N#CC1=C(N)Oc2cc(O)ccc2C1c1ccc2c(c1)OCO2 (centres unmarked) | -5.28
92 | Oc1cccnc1NC(c1ccc(Cl)cc1)c1ccc2cccnc2c1O (centres unmarked) | -11.3
93 | COc1ccccc1N1CCN(Cc2c(C)[nH]c3ccccc23)CC1 | -6.47
94 | C=CCNC(=O)c1c(NC(=O)c2cccs2)sc2c1CCCC2 | -5.23
95 | Cc1ccc2nc(-c3ccc(NC(=O)c4ccc(C)c([N+](=O)[O-])c4)cc3)sc2c1 | -0.546
96 | CCc1cccc(C)c1NC(=O)c1c(OC)cccc1OC | 5.04
97 | Fc1ccccc1N1CCN(Cc2ccc(Br)o2)CC1 | -2.7
98 | CCCCSc1nc2c(c(=O)[nH]c(=O)n2C)n1Cc1cccc(C)c1 | -2.91
99 | O=C(c1cn(Cc2nc(-c3cccs3)no2)c2ccccc12)C(F)(F)F | -1.72
100 | O=C(NCCCN1CCOCC1)c1ccc(CS(=O)(=O)c2cccc(C(F)(F)F)c2)o1 | -1.28
101 | CC1=C(C(=O)NCCN(C)C2CCCCC2)C2(CCCCC2)OC1=O | 4.65
102 | COC(=O)c1ccc(CO/N=C(\N)c2nonc2N)cc1 | 1.03
103 | COc1cccc(CSc2nncn3c2cc2oc(C)cc23)c1 | 0.0525
104 | c1ccc(N2CCN(Cc3cccc4ccccc34)CC2)cc1 | -0.192
